Measurements published in publication PMC5066494, “Interaction between RNA helicase ROOT INITIATION DEFECTIVE 1 and GAMETOPHYTIC FACTOR 1 is involved in female gametophyte development in Arabidopsis” (Journal of Experimental Botany, 2016).
Results are given in words; binding and its absence hold for the method and conditions named. For some of these results: Binding seen in cells or lysates may run through a third protein. Some binding calls cover weakened binding; strength is not graded here. Sequences can lack the tags named with a protein.

T1: GAMETOPHYTIC FACTOR 1 (GFA1), full length, fused to the Gal4 DNA-binding domain (Arabidopsis) (UniProt Q9LNC5)
T1 sequence: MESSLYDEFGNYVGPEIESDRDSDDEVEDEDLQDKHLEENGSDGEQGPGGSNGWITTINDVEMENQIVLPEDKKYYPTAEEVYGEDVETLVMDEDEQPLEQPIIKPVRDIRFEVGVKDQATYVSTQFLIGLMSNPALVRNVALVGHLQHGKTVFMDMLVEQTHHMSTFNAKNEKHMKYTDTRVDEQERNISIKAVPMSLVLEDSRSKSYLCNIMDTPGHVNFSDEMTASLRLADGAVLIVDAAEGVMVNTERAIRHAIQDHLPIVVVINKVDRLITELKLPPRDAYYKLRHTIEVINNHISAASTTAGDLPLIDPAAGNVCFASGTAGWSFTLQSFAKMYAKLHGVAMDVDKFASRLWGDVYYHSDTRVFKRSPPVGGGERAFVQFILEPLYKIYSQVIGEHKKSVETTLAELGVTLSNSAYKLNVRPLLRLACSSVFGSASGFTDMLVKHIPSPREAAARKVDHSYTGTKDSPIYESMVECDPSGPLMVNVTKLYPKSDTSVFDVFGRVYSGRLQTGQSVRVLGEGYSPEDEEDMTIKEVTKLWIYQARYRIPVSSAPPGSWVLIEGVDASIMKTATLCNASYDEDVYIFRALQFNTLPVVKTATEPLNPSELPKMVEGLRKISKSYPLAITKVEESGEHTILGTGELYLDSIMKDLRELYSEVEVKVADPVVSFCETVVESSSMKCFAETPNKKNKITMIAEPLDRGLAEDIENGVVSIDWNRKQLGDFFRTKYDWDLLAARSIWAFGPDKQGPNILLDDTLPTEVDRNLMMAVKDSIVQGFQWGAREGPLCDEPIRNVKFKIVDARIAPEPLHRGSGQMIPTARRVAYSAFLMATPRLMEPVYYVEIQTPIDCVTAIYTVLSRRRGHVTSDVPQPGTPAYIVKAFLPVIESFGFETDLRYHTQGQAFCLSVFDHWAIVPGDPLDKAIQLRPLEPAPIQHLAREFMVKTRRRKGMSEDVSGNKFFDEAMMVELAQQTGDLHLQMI

T2: GFA1 fused to the C-terminal part of yellow fluorescent protein (GFA1-YFP C) (Arabidopsis) (UniProt Q9LNC5)
T2 sequence: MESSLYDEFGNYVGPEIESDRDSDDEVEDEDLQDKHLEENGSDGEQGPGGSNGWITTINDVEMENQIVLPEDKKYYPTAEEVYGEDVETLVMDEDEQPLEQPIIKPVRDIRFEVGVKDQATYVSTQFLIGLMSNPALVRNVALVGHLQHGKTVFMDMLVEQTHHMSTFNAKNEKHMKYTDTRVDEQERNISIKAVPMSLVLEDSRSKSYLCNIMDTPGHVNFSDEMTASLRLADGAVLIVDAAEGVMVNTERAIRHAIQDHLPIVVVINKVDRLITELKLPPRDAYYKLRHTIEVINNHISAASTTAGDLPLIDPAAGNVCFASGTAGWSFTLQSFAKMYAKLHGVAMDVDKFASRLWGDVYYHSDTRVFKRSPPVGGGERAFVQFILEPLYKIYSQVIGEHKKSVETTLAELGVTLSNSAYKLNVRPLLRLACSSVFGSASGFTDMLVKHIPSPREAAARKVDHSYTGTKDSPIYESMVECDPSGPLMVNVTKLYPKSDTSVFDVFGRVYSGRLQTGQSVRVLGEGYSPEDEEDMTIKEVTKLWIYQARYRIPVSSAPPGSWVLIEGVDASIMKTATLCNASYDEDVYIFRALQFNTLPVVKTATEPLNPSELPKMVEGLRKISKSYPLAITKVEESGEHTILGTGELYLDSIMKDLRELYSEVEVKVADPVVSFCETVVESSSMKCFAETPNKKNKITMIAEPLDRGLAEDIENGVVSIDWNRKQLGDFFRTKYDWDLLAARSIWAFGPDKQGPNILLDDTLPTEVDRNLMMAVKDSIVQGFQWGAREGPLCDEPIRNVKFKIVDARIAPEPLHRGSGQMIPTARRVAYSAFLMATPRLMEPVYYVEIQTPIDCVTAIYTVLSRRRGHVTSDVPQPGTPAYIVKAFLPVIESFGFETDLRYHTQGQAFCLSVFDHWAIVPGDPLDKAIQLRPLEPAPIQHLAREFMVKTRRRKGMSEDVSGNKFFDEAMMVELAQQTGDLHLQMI


biological target: T1, GAMETOPHYTIC FACTOR 1 (GFA1), full length, fused to the Gal4 DNA-binding domain (Arabidopsis); experiment: two-hybrid; S. cerevisiae Y2H gold; RID1 or its fragments in pGADT7 (AD), GFA1 in pGBKT7 (BD); growth on SD/−Trp/−Leu/−His/−Ade and blue colour with X-α-gal; 30 °C, 3–5 d

| binding | Binder |
| --- | --- |
| binds | RID1 amino acids 1–309, fused to the Gal4 activation domain (domain or fragment, UniProt F4IE66 1-309) MPSMAQGELKSFVQNSRPNPKSPTVSPFSMRQKIAEHRRSLPIASVEKRLVEEVQKNDILIIVGETGSGKTTQLPQFLYNAGFCREGKMIGITQPRRIAAVTVAKRVAEECEVQLGQKVGYSIRFDDTTSGSTRLKYMTDGLLLREALLDPHLSRYSVIIVDEAHDRSVHTDVLLALLKKIQRTRSQPVSEKTEFGNVASQVQTTTRDANGPQQNGVLKGYQGRKLSPLKLIIMSASLDARVFSEYFGGAKAVHVQGRQFPVDILYTVHPESDYVDATLVTIFQIHFEEKPGDILVFLTGQDEIESVER |
| binds | RID1_(1-271) (G257A, V262K, and Y266A), fused to the Gal4 activation domain (domain or fragment, UniProt F4IE66 1-271) MPSMAQGELKSFVQNSRPNPKSPTVSPFSMRQKIAEHRRSLPIASVEKRLVEEVQKNDILIIVGETGSGKTTQLPQFLYNAGFCREGKMIGITQPRRIAAVTVAKRVAEECEVQLGQKVGYSIRFDDTTSGSTRLKYMTDGLLLREALLDPHLSRYSVIIVDEAHDRSVHTDVLLALLKKIQRTRSQPVSEKTEFGNVASQVQTTTRDANGPQQNGVLKGYQGRKLSPLKLIIMSASLDARVFSEYFGGAKAVHVQARQFPKDILATVHPE |
| binds | RID1_(1-271)-AD with the T267I mutation (domain or fragment, UniProt F4IE66 1-271) MPSMAQGELKSFVQNSRPNPKSPTVSPFSMRQKIAEHRRSLPIASVEKRLVEEVQKNDILIIVGETGSGKTTQLPQFLYNAGFCREGKMIGITQPRRIAAVTVAKRVAEECEVQLGQKVGYSIRFDDTTSGSTRLKYMTDGLLLREALLDPHLSRYSVIIVDEAHDRSVHTDVLLALLKKIQRTRSQPVSEKTEFGNVASQVQTTTRDANGPQQNGVLKGYQGRKLSPLKLIIMSASLDARVFSEYFGGAKAVHVQGRQFPVDILYIVHPE |
| binds | RID1 amino acids 1–271 (RID1_(1–271)), fused to the Gal4 activation domain (domain or fragment, UniProt F4IE66 1-271) MPSMAQGELKSFVQNSRPNPKSPTVSPFSMRQKIAEHRRSLPIASVEKRLVEEVQKNDILIIVGETGSGKTTQLPQFLYNAGFCREGKMIGITQPRRIAAVTVAKRVAEECEVQLGQKVGYSIRFDDTTSGSTRLKYMTDGLLLREALLDPHLSRYSVIIVDEAHDRSVHTDVLLALLKKIQRTRSQPVSEKTEFGNVASQVQTTTRDANGPQQNGVLKGYQGRKLSPLKLIIMSASLDARVFSEYFGGAKAVHVQGRQFPVDILYTVHPE |
| binds | RID1_(1-271)-AD with all conserved residues substituted (G257A, R258A, P261K, V262K, I264K, Y266A, P270K, and E271A) (domain or fragment, UniProt F4IE66 1-271) MPSMAQGELKSFVQNSRPNPKSPTVSPFSMRQKIAEHRRSLPIASVEKRLVEEVQKNDILIIVGETGSGKTTQLPQFLYNAGFCREGKMIGITQPRRIAAVTVAKRVAEECEVQLGQKVGYSIRFDDTTSGSTRLKYMTDGLLLREALLDPHLSRYSVIIVDEAHDRSVHTDVLLALLKKIQRTRSQPVSEKTEFGNVASQVQTTTRDANGPQQNGVLKGYQGRKLSPLKLIIMSASLDARVFSEYFGGAKAVHVQAAQFKKDKLATVHKA |
| binds | RID1_(1-271) (P270S and E271K), fused to the Gal4 activation domain (domain or fragment, UniProt F4IE66 1-271) MPSMAQGELKSFVQNSRPNPKSPTVSPFSMRQKIAEHRRSLPIASVEKRLVEEVQKNDILIIVGETGSGKTTQLPQFLYNAGFCREGKMIGITQPRRIAAVTVAKRVAEECEVQLGQKVGYSIRFDDTTSGSTRLKYMTDGLLLREALLDPHLSRYSVIIVDEAHDRSVHTDVLLALLKKIQRTRSQPVSEKTEFGNVASQVQTTTRDANGPQQNGVLKGYQGRKLSPLKLIIMSASLDARVFSEYFGGAKAVHVQGRQFPVDILYTVHSK |
| binds | RID1 amino acids 265–472, fused to the Gal4 activation domain (domain or fragment, UniProt F4IE66 265-472) LYTVHPESDYVDATLVTIFQIHFEEKPGDILVFLTGQDEIESVERLVQERLQNIPEDKRKLLPLAIFSALPSEQQMKVFAPAPTGFRKVILATNIAETSITIPGIRYVIDPGFVKARSYDPSKGMESLDVVPASKAQTLQRSGRAGREGPGKSFRLYPEREFEKLEDSTKPEIKRCNLSNIILQLKALGIDDIVGFDFIDKPSRGAII |
| no binding | RID1_(272–460), fused to the Gal4 activation domain (domain or fragment, UniProt F4IE66 272-460) SDYVDATLVTIFQIHFEEKPGDILVFLTGQDEIESVERLVQERLQNIPEDKRKLLPLAIFSALPSEQQMKVFAPAPTGFRKVILATNIAETSITIPGIRYVIDPGFVKARSYDPSKGMESLDVVPASKAQTLQRSGRAGREGPGKSFRLYPEREFEKLEDSTKPEIKRCNLSNIILQLKALGIDDIVGF |
| binds | ROOT INITIATION … 1 (RID1), full length, fused to the Gal4 activation domain (protein, UniProt F4IE66 1-717) MPSMAQGELKSFVQNSRPNPKSPTVSPFSMRQKIAEHRRSLPIASVEKRLVEEVQKNDILIIVGETGSGKTTQLPQFLYNAGFCREGKMIGITQPRRIAAVTVAKRVAEECEVQLGQKVGYSIRFDDTTSGSTRLKYMTDGLLLREALLDPHLSRYSVIIVDEAHDRSVHTDVLLALLKKIQRTRSQPVSEKTEFGNVASQVQTTTRDANGPQQNGVLKGYQGRKLSPLKLIIMSASLDARVFSEYFGGAKAVHVQGRQFPVDILYTVHPESDYVDATLVTIFQIHFEEKPGDILVFLTGQDEIESVERLVQERLQNIPEDKRKLLPLAIFSALPSEQQMKVFAPAPTGFRKVILATNIAETSITIPGIRYVIDPGFVKARSYDPSKGMESLDVVPASKAQTLQRSGRAGREGPGKSFRLYPEREFEKLEDSTKPEIKRCNLSNIILQLKALGIDDIVGFDFIDKPSRGAIIKALAELHSLGALADDGKLENPVGYQMSRLPLEPVYSKALILANQFNCLEEMLITVAVLSVESIFYDPREKREEARTSKNHFASVEGDHLTYLSVYRESDEFLEKRKAAGSGNNIDKIMKKWCKENYVNSRSLKHARDIYRQIREHVEQIGFNVSSCGNDMLAFRRCLAASFFLKAAQRQLDGTYRALESGEVVHIHPTSVLFRAKPECVIFNELMQTSKKYIKNLTIIDSLWLSELAPHHFQTAE |

biological target: T2, GFA1 fused to the C-terminal part of yellow fluorescent protein (GFA1-YFP C) (Arabidopsis); experiment: split reporter; BiFC: 35S::RID1-YFPN and 35S::GFA1-YFPC in N. benthamiana leaf epidermal cells by Agrobacterium infiltration; confocal microscopy after 3 d

| binding | Binder |
| --- | --- |
| binds | RID1 fused to the N-terminal part of yellow fluorescent protein (RID1-YFP N) (protein, UniProt F4IE66 1-717) MPSMAQGELKSFVQNSRPNPKSPTVSPFSMRQKIAEHRRSLPIASVEKRLVEEVQKNDILIIVGETGSGKTTQLPQFLYNAGFCREGKMIGITQPRRIAAVTVAKRVAEECEVQLGQKVGYSIRFDDTTSGSTRLKYMTDGLLLREALLDPHLSRYSVIIVDEAHDRSVHTDVLLALLKKIQRTRSQPVSEKTEFGNVASQVQTTTRDANGPQQNGVLKGYQGRKLSPLKLIIMSASLDARVFSEYFGGAKAVHVQGRQFPVDILYTVHPESDYVDATLVTIFQIHFEEKPGDILVFLTGQDEIESVERLVQERLQNIPEDKRKLLPLAIFSALPSEQQMKVFAPAPTGFRKVILATNIAETSITIPGIRYVIDPGFVKARSYDPSKGMESLDVVPASKAQTLQRSGRAGREGPGKSFRLYPEREFEKLEDSTKPEIKRCNLSNIILQLKALGIDDIVGFDFIDKPSRGAIIKALAELHSLGALADDGKLENPVGYQMSRLPLEPVYSKALILANQFNCLEEMLITVAVLSVESIFYDPREKREEARTSKNHFASVEGDHLTYLSVYRESDEFLEKRKAAGSGNNIDKIMKKWCKENYVNSRSLKHARDIYRQIREHVEQIGFNVSSCGNDMLAFRRCLAASFFLKAAQRQLDGTYRALESGEVVHIHPTSVLFRAKPECVIFNELMQTSKKYIKNLTIIDSLWLSELAPHHFQTAE |
